{"source": "paper PMC4336329", "about": "(PLoS ONE, 2015)", "note": "Out of some 310,000 compounds screened, about 2,200 (0.71%) showed an effect of 50% or more. Effects have a minus sign here. Some of the results follow."}
{"biological_target": "human ether-à-go-go-related gene (hERG) potassium channel (human, UniProt Q12809)", "sequence (Q12809 whole entry, looked up)": "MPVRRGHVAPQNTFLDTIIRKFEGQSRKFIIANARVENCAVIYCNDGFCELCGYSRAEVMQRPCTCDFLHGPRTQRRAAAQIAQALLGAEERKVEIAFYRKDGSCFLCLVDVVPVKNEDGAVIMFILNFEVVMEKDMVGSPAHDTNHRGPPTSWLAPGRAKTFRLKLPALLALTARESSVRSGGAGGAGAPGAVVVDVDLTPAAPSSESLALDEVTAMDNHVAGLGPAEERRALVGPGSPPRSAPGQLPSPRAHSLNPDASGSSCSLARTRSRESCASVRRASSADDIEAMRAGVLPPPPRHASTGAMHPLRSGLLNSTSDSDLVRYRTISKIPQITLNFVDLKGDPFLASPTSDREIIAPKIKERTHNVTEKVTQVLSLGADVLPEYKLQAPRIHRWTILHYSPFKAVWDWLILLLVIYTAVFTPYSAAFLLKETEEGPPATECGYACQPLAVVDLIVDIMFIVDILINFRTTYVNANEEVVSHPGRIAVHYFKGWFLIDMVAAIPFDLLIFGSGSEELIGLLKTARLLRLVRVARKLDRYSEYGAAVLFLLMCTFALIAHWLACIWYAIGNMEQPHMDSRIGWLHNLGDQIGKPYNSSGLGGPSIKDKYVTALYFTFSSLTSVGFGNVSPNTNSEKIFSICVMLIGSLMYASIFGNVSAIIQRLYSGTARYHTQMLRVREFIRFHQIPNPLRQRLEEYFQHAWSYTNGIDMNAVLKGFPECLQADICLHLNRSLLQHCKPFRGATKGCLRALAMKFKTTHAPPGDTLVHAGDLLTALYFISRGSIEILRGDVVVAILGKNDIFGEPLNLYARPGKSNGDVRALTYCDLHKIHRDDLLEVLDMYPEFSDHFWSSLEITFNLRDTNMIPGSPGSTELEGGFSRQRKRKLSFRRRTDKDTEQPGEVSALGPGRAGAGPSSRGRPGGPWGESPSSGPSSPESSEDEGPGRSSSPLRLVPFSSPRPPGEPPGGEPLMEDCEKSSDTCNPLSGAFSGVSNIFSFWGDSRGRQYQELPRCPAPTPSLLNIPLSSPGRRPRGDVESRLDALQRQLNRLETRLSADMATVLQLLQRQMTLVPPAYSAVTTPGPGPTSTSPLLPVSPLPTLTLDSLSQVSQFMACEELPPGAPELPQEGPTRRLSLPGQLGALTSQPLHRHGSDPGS", "assay": "primary screen, population patch clamp on CHO cells stably expressing hERG", "units": {"hERG current change (%, negative = inhibition) at 1uM": "%"}}
{"smiles": "O=C(O)C1CCN(S(=O)(=O)c2ccc(Oc3ccccc3)cc2)CC1", "hERG current change (%, negative = inhibition) at 1uM": 17.1}
{"smiles": "O=C(NC(Cc1ccccc1)C(=O)N1CCCC(C(F)(F)F)C1)c1ccccc1", "note": "(stereo not drawn)", "hERG current change (%, negative = inhibition) at 1uM": 7.64}
{"smiles": "O=C1[C@@H]2CSCN2C(=O)CN1CCc1cccc(F)c1", "hERG current change (%, negative = inhibition) at 1uM": -10.7}
{"smiles": "CCCCCN(C(=O)CCC(=O)OCCOc1ccccc1Cl)c1c(N)n(CCCC)c(=O)[nH]c1=O", "hERG current change (%, negative = inhibition) at 1uM": 9.07}
{"smiles": "Cn1c(CCC(=O)OCC(=O)Nc2ccc(Oc3ccccc3)cc2)nc(=O)c2ccccc21", "hERG current change (%, negative = inhibition) at 1uM": -0.724}
{"smiles": "COC(=O)c1ccc2nc(C)c(C)nc2c1", "hERG current change (%, negative = inhibition) at 1uM": 15.8}
{"smiles": "CCN(CC)C(=O)N1CCN(C(=O)c2ccc(C)cn2)CC1", "hERG current change (%, negative = inhibition) at 1uM": 8.85}
{"smiles": "CCOCCCNC(=O)CCS(=O)(=O)Cc1ccc(C)cc1", "hERG current change (%, negative = inhibition) at 1uM": 2.15}
{"smiles": "CC(C)(C)OC(=O)NC(CCCCNC=O)C(=O)O", "note": "(stereo not drawn)", "hERG current change (%, negative = inhibition) at 1uM": 5.74}
{"smiles": "O=C(O)CCCCCNC(=O)c1ccc(Br)cc1", "hERG current change (%, negative = inhibition) at 1uM": 5.7}
{"smiles": "Cc1ccc(C)c(S(=O)(=O)n2cnc3ccccc32)c1", "hERG current change (%, negative = inhibition) at 1uM": 14.1}
{"smiles": "CCNC(=S)N1CCN(S(=O)(=O)c2ccccc2C(F)(F)F)CC1", "hERG current change (%, negative = inhibition) at 1uM": 5.21}
{"smiles": "Cc1ccc(NC(=S)N2CCC(NC(=O)C3CCCCC3)CC2)cc1C", "hERG current change (%, negative = inhibition) at 1uM": 11.9}
{"smiles": "COc1cc(CC(=O)OCC(=O)NC2CCCCC2)cc(OC)c1OC", "hERG current change (%, negative = inhibition) at 1uM": 13}
{"smiles": "O=C(/C=C/c1cc2ccccc2o1)c1ccccc1O", "hERG current change (%, negative = inhibition) at 1uM": 12.8}
{"smiles": "CC(=O)N(C1=NCCCS1)c1ccc(F)cc1", "hERG current change (%, negative = inhibition) at 1uM": 8.25}
{"smiles": "O=C(Nc1cccc(Cl)c1)c1cc(-c2ccco2)on1", "hERG current change (%, negative = inhibition) at 1uM": 11.1}
{"smiles": "COc1ccc(Nc2ncnc3sc(-c4ccccc4)cc23)cc1OC", "hERG current change (%, negative = inhibition) at 1uM": 9.37}
{"smiles": "Cc1ccc(S(=O)(=O)N2CCCCC2)cc1NC(=O)COC(=O)C1=COCCO1", "hERG current change (%, negative = inhibition) at 1uM": 14.1}
{"smiles": "O=Cc1c(F)cccc1N1CCCC1", "hERG current change (%, negative = inhibition) at 1uM": 2.68}
{"smiles": "COC(=O)C1=C2c3[nH]c4ccccc4c3CCN2C(=O)CC1", "hERG current change (%, negative = inhibition) at 1uM": 15.1}
{"smiles": "CCOc1ccc(NC(=O)NCCN2CCN(c3cccc(C)c3C)CC2)cc1", "hERG current change (%, negative = inhibition) at 1uM": 0.315}
{"smiles": "COc1cc(C(=O)NC2CC3CCCC(C2)N3C2CC2)cc(OC)c1OC", "note": "(stereo not drawn)", "hERG current change (%, negative = inhibition) at 1uM": 18.2}
{"smiles": "COc1ccc(OCCCn2ccnc2)cc1.Cl", "hERG current change (%, negative = inhibition) at 1uM": 24.3}
{"smiles": "COc1ccc(N2CCN(C(=O)c3cccc(F)c3)CC2)c([N+](=O)[O-])c1", "hERG current change (%, negative = inhibition) at 1uM": -39}
{"smiles": "O=C(CSC1CC(=O)N(CCc2ccccc2)C1=O)Nc1ccc(Cl)cc1", "note": "(stereo not drawn)", "hERG current change (%, negative = inhibition) at 1uM": 5.21}
{"smiles": "O=C(c1cc(COc2c(F)cccc2F)on1)N1CCc2ccccc2C1", "hERG current change (%, negative = inhibition) at 1uM": 4.47}
